Test results taken from PubChem BioAssay AID1240 (Sanford-Burnham Center for Chemical Genomics, 2008).
Among all 50,000 compounds or so, about 800 (1.6%) showed an effect of 50% or more. Some of the results follow.

These compounds were tested against Bcl-2-like protein 10 (Homo sapiens) (UniProt Q9HD36) (assay: Phenotype converters, Bcl-B/TR3 peptide binding displacement, primary biochemical FP (AID 1240;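 note: 0% = Bcl-B with tracer peptide and DMSO and 100% = tracer peptide lacking Bcl-B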)). Settings: GST-Bcl-B / FITC-TR3 peptide fluorescence polarization; stronger effect = higher value; compound at 3.75 mg/L.
Sequence of UniProt Q9HD36 (Q9HD36 whole entry, looked up): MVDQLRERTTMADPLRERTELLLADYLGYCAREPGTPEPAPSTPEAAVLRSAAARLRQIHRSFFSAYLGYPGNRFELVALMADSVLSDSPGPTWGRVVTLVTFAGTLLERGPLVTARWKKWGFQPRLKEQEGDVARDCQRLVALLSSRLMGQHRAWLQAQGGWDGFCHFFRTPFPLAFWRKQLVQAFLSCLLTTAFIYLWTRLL
Work on `O=C(Oc1ccc([N+](=O)[O-])cc1)c1ccccc1Cl` yielded a displacement of 2.5%. Compound `CCOC(=O)c1ccc(NS(=O)(=O)c2cc(-c3nnnn3CC)ccc2OC)cc1` has a displacement of 11.7%. `Cc1ccc(NC(=S)NC(=O)c2ccccc2Cl)cc1C` was tested, and the displacement was 4.5%. Compound `O=[N+]([O-])c1ccc2c(c1)C1C=CCC1C(c1ccc(Cl)cc1)N2` (stereo unspecified) has a displacement of -7.6%. In the case of `C=C(C)COc1ccc2c(-c3ccccc3)cc(=O)oc2c1`, the displacement is reported as -8.5%. For `Cc1cc2c(cc1C)N(C(=O)CSc1ncn[nH]1)C(C)(C)c1ssc(=S)c1-2`, the displacement was 9.9%. `CCc1nnc(NC(=O)C(CC)Oc2ccccc2)s1` (stereo unspecified) gave a displacement of 4%. `C=CCOCCN(C)C1=NS(=O)(=O)c2cc([N+](=O)[O-])ccc21` gave a displacement of -8.7%. For `NNC(=O)CNC(c1ccccc1)c1cc(Br)ccc1NC(=O)CN1CCOCC1` (stereo unspecified), the displacement was -20.8%. `O=C(Nc1ccc2c(c1)oc1ccccc12)c1ccc(Cl)cc1Cl` gave a displacement of 0.7%. With `CC1CCN(C2=NC(=O)/C(=C/c3ccccc3O)S2)CC1` the displacement was -12.6%. `COc1ccc(/C=N/n2cnnc2SCc2ccccc2)cc1` was tested, and the displacement was 3.5%. Work on `Cc1ccc(-n2nc3ccc(NC(=O)C(C)C)cc3n2)cc1Cl` yielded a displacement of -10.5%. Work on `COc1ccccc1C(=O)Nc1ccc(-c2csc(-c3ccccc3)n2)cc1` yielded a displacement of 21.2%. Work on `CC(=O)Nc1ccc(/C(C)=N\NC(=O)CCN2CCCCC2)cc1` yielded a displacement of -6.8%. `CCOC(=O)c1c(C)oc2cc(Cl)c(O)c(CN(C)C)c12` showed a displacement of -3.9%. With `Cc1cccc(N2CC(=O)N/C2=N\c2nc(C)cc(C)n2)c1` the displacement was 10.2%. `COc1cc(C(=S)N2CCOCC2)ccc1OC(C)=O` gave a displacement of 12.7%. `O=C(Nc1cccc(-c2nc3cc(Cl)ccc3o2)c1)c1ccc2c(c1)OCCO2` was tested, and the displacement was 105%. `Cc1cc(C)n(S(=O)(=O)c2cccc(Cl)c2Cl)n1` gave a displacement of 12.8%. In the case of `Cn1c(N/N=C\c2cccs2)cc(=O)n(C)c1=O`, the displacement is reported as -7%. For `O=C1c2cccc3cc([N+](=O)[O-])cc(c23)C(=O)N1Nc1ccccc1`, the displacement was 13%. `COC(=O)c1ccc(-n2c(C)cc(/C=C3\SC(NC(C)=O)=NC3=O)c2C)cc1` was tested, and the displacement was 114%. `COc1ccccc1NC(=O)c1ccccc1NS(=O)(=O)c1ccc(C)cc1` gave a displacement of 10.3%. In the case of `Cc1ccc(C)c(NC(=O)/C=C/c2ccc(Cl)cc2)c1`, the displacement is reported as 10.1%. `COc1ccc(CC(=O)Nc2ccc(Sc3ccc([N+](=O)[O-])cc3)cc2)cc1OC` was tested, and the displacement was 0%. `O=C(CSc1ncn[nH]1)n1c2ccccc2c2ccccc21` was tested, and the displacement was -11.1%. `COc1cccc(C(=O)NNC(=O)c2ccc(OC)cc2OC)c1` was tested, and the displacement was 21.4%. `O=[N+]([O-])c1ccc(O)c(/C=N/Nc2nnc3c(n2)[nH]c2ccccc23)c1` gave a displacement of 47.9%. `O=C(CCNc1n[nH]c(=O)[nH]c1=O)N/N=C/c1ccc(C(F)(F)F)cc1` was tested, and the displacement was -11%. `COc1ccc(NC(=O)c2ccc(C)c([N+](=O)[O-])c2)cc1OC` gave a displacement of -2.2%. `COc1ccccc1-c1coc2cc(OC(=O)c3c(Cl)ccc(Cl)c3OC)ccc2c1=O` gave a displacement of 10.5%. Compound `CC(=O)Oc1cc(OC(C)=O)c2c(C)cc(=O)oc2c1` has a displacement of -2.5%. `O=C(Nc1cc([N+](=O)[O-])ccc1F)c1ccccc1Br` gave a displacement of 13.9%. `O=C(CN1C(=O)c2ccccc2C1=O)Nc1cc(Cl)ccc1C(=O)O` showed a displacement of -6.4%. With `O=C(NC(=S)Nc1cccc2ccccc12)c1ccc(Cl)cc1` the displacement was -5.1%. `O=C(c1ccc(F)cc1)N(Cc1ccccc1)c1cccc([N+](=O)[O-])c1` gave a displacement of 0.4%. Work on `O=C1/C(=C/c2ccco2)N2CCC1CC2` yielded a displacement of 26.9%. Compound `CCOC(=O)/C(C(=O)Nc1ccc(Br)cc1)=C1\NC(C)(C)Cc2ccccc21` has a displacement of 4.9%. For `Cc1ccccc1NCC(=O)N/N=C\c1ccc(I)o1`, the displacement was 2.8%. With `CCN(CC)c1ccc(C(=O)Nc2ccccc2Cl)cc1` the displacement was 14.9%. For `O=C(O)C1C2C=CC(C3CC23)C1C(=O)Nc1cccc(Br)c1` (stereo unspecified), the displacement was -6.5%. Compound `COc1c(Cl)cc(C(=O)Nc2ccc(N3CCOCC3)cc2)cc1Cl` has a displacement of 17%. With `CCOC(=O)C1=C(Nc2ccc(Br)cc2)CC(C)(O)C(C(=O)OCC)C1c1ccccc1` (stereo unspecified) the displacement was 2.3%. `CCCN1c2ccccc2C(=C2SC(C(=O)OC)=C(C(=O)OC)S2)C(=S)C1(C)C` showed a displacement of 16.5%. `Cc1cc(=O)oc2cc(OCC(=O)c3ccc(-c4ccccc4)cc3)ccc12` was tested, and the displacement was -5.9%. Compound `Cc1ccc(S(=O)(=O)Nc2ccc(Oc3ccccc3)cc2)cc1[N+](=O)[O-]` has a displacement of 18.6%. For `O=C(COc1ccc(Cl)cc1Br)NNC(=O)c1ccc(-c2ccccc2)cc1`, the displacement was -4%. `Ic1cccc(/C=N/n2cnnc2)c1` showed a displacement of 8.6%. `C=CCOc1cccc(/C=C/C(=O)c2ccc(C)cc2)c1` was tested, and the displacement was -5.7%. Compound `COC(=O)c1ccc(C(=O)OC)c(NC(=O)Cc2ccc(Cl)cc2)c1` has a displacement of 1.3%. In the case of `Cc1cc(Br)ccc1N1C(=O)c2ccc(-c3nc4ccccc4c(=O)o3)cc2C1=O`, the displacement is reported as 8.4%. `CN(C)c1ccc(/C=C2/SC(=S)N(Cc3ccccc3)C2=O)cc1` was tested, and the displacement was -15.3%. `COc1cc(C(=O)NCCC(C)C)c([N+](=O)[O-])cc1OC` was tested, and the displacement was 13.8%. `CCOC(=O)c1c(NC(=O)C2CCCCC2)sc(C(=O)N(CC)CC)c1C` gave a displacement of 1.4%. With `Cc1ccsc1-c1ncnn1-c1sc2c(c1C#N)CCCC2` the displacement was 10.9%. `CCN(CC)c1ccc(N2C(=O)/C(=C\c3cccs3)SC2=S)cc1` was tested, and the displacement was 3.4%. `Cc1cc(OCC(=O)NCc2ccc3c(c2)OCO3)cc(C)c1Cl` was tested, and the displacement was -9.9%. Work on `C=CCNC(=O)C1CC(=O)N(c2ccc(Br)cc2)C1` (stereo unspecified) yielded a displacement of -7.8%. In the case of `COc1ccc(C(O)(C(=O)NCc2ccccc2)c2ccc(OC)cc2)cc1`, the displacement is reported as 1.8%. `CCN(CC)C(=O)Nc1ccc(Cl)cc1` gave a displacement of 2.7%. With `Cc1csc(NC(=O)c2ccco2)n1` the displacement was 9.1%. Work on `O=C(NNC(=O)c1sc2ccccc2c1Cl)Nc1ccc(Cl)cc1` yielded a displacement of 7.9%. In the case of `CCCc1ccc(OCCNC(=O)c2ccc(C)cc2)cc1`, the displacement is reported as 1.8%. For `O=C(CN1C(=O)c2ccccc2C1=O)Nc1cccc2c1C(=O)N(c1ccccc1)C2=O`, the displacement was -6%. For `CC(C)CN1C(=O)/C(=C/c2cccc(Br)c2)SC1=S`, the displacement was 9.3%. Work on `COc1ccc(C(=O)NC(Nc2ccccc2)C(Cl)(Cl)Cl)cc1OC` (stereo unspecified) yielded a displacement of 0.3%. For `CN(C)Cn1c(O)c(N=NC(=O)c2cccnc2)c2cc(Br)ccc21`, the displacement was -5.5%. With `COc1ccc2nc(SCC(=O)Nc3ccc(F)cc3)[nH]c2c1` the displacement was -8.9%. In the case of `O=C1C=C(NCc2ccco2)C2(CCCCC2)O1`, the displacement is reported as 10.6%. For `Cc1ccc(-c2cc(-c3ccccc3O)[nH]n2)cc1`, the displacement was -11.4%. `Cc1ccc(N2C(=O)NC(=O)/C(=C\c3cc(C)n(C)c3C)C2=O)cc1` gave a displacement of 12.6%. Compound `CCCC1CCc2c(sc(NC(=O)C3c4ccccc4Oc4ccccc43)c2C(N)=O)C1` (stereo unspecified) has a displacement of -1.1%. `COc1cc(N2Cc3ccc(OC)c(OC)c3C2=O)cc(OC)c1OC` showed a displacement of 0.1%. `Cc1ccc(-c2ccc(C(=O)Nc3ccc([N+](=O)[O-])cc3C)o2)cc1Cl` showed a displacement of 0.4%. Work on `COCCOC(=O)c1c(C)oc2c1cc(NS(=O)(=O)c1ccc(F)cc1)c1ccccc12` yielded a displacement of 18%. `O=C(c1coc2ccc(O)c(CN3CCCCC3)c12)C1CC1` gave a displacement of 11%. Compound `CC(C)=C1C2CCC1C(C(=O)NC1CCCCC1)C2C(=O)O` (stereo unspecified) has a displacement of -8.3%. Work on `COc1ccc(N(CC(=O)N/N=C\c2ccccc2O)S(=O)(=O)c2ccc(C)c([N+](=O)[O-])c2)cc1` yielded a displacement of -4%. Work on `CCOc1ccccc1N(CC(=O)NCCCOC)S(=O)(=O)c1ccccc1` yielded a displacement of 2.9%. `O=C(c1cccnc1)N(Cc1ccccc1)Cc1ccccc1` showed a displacement of 6%. `O=[N+]([O-])c1ccc(-c2nc(NCc3ccccc3)cc(-c3ccccc3)n2)cc1` showed a displacement of 7%. Compound `CCOc1ccc2nc(SCCNS(=O)(=O)c3ccccc3)sc2c1` has a displacement of -8.7%. Work on `CCN(CC)c1ccc(NC(=O)/C=C/c2cc(Br)ccc2OC)cc1` yielded a displacement of 12.9%. `COc1ccc(C(=O)CSc2nc3ccc([N+](=O)[O-])cc3[nH]2)cc1` gave a displacement of 13.2%. `Cc1ccc(NC(=O)c2ccccc2NC(=O)Cc2cccs2)cc1C` gave a displacement of 3.4%. Compound `O=C(CCCN1CCN2CCCC2C1)c1ccc(F)cc1` (stereo unspecified) has a displacement of -8%. `CC1(C)Cc2c(sc3ncn4nc(-c5ccncc5)nc4c23)C(C)(C)N1` showed a displacement of -5.9%. In the case of `COc1cc2ccccc2cc1C(=O)Nc1ccc(Br)cn1`, the displacement is reported as -5.1%. `NC(=O)c1cccc2c1-c1ccccc1/C2=N/NC(N)=S` gave a displacement of 8.5%. With `COc1ccccc1N1CCN(/N=C/c2ccc(C(F)(F)F)cc2)CC1` the displacement was -3.5%. `COc1ccccc1NC(=O)COc1ccc(C)cc1C` showed a displacement of 6.4%. `O=C(O)c1ccc(-c2cccc(Br)c2)o1` gave a displacement of -2.9%. `Nc1nonc1-n1nnc(CN2CCCCCC2)c1CN1CCCCCC1` showed a displacement of 5%. For `CC(Oc1ccc(Cl)cc1Cl)C(=O)Nc1ccc2c(c1)OCO2` (stereo unspecified), the displacement was -8.4%. `COC(=O)c1c(N)sc(C)c1-c1ccc(Cl)cc1Cl` gave a displacement of -5.8%. For `O=C1NC(=Nc2ccccc2)S/C1=C/c1ccsc1`, the displacement was 1.2%. For `COc1cc(C(=O)NN2C(=O)/C(=C/c3ccc(OC)c(OC)c3)SC2=S)ccc1O`, the displacement was -28.1%. Work on `CCOC(=O)c1sc(NC(=O)C2c3ccccc3Oc3ccccc32)c(C(N)=O)c1C` yielded a displacement of 4.7%. `COC(=O)C(C)N(C(=O)c1cccc(Cl)c1)c1c(C)cccc1C` (stereo unspecified) showed a displacement of 12.9%. For `COc1cc(OC)c(-c2nc(-c3ccccc3)c(-c3ccc([N+](=O)[O-])cc3)[nH]2)cc1OC`, the displacement was 1.8%. `COc1cccc(/C=C2\SC(=O)N(CCC(=O)Nc3ccc(Br)cc3)C2=O)c1` showed a displacement of 1.9%. `c1n[nH]c(NCc2ccc3c(c2)OCO3)n1` gave a displacement of 10%. With `COc1ccc(N(Cc2ccc(C(=O)NC3CCCCC3)cc2)S(=O)(=O)c2ccccc2)cc1` the displacement was 2.9%. `CCOC(=O)C1=C(C)NC(C)=C(C(=O)OC)C1c1ccc(Cl)cc1` (stereo unspecified) was tested, and the displacement was 3.3%. For `COc1ccccc1CC(=O)Nc1cccc(Br)c1`, the displacement was 9.7%. `CCCC(=O)C1C(=O)CC(C)(C)C1C(=O)OC` (stereo unspecified) was tested, and the displacement was -9.6%. `COC(=O)c1ccn(C(=O)c2ccc(Cl)cc2)n1` showed a displacement of -1%. In the case of `O/C(=C/c1nc2ccccc2nc1/C=C(/O)c1ccccc1)c1ccccc1`, the displacement is reported as 13.6%. In the case of `CC(Cc1ccccc1)NC(=O)c1cc2ccccc2o1` (stereo unspecified), the displacement is reported as -14%. For `CCC1C(c2ccc(Cl)cc2)NC(c2ccc(Cl)cc2)C(CC)C1O` (stereo unspecified), the displacement was -9%.
